Measurements as given in PubChem BioAssay AID1347417 (National Center for Advancing Translational Sciences (NCATS), 2020).
In all, about 120,000 compounds went through this assay and about 5,300 (4.4%) were called active. The shares of active, inactive and inconclusive entries below differ from those in the screen. Calls come from the whole dose curve; as a rule, active = well fitted inhibition curve with a large enough effect; inconclusive = small, poorly fitted or top-dose-only effect; inactive = no such curve, though single readings can be large or run the other way. Potencies of inconclusive entries are doubtful fits and often do not repeat.

Assay: qHTS Primary assay for Inhibitors of Plasmodium falciparum Dd2 growth in vitro; note: nearly all actives have a fitted effect of over 65% in size;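 for activity, negative = inhibition: plate controls were DMSO vehicle for no effect and reference drug for full effect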
Settings: P. falciparum Dd2 growth, SYBR Green, 72 h; activity, negative = inhibition: at 28.9 µM (top of the series) unless noted; series mostly up to 28.9 µM
Method in brief: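 Readout: SYBR Green fluorescence, 485 nm excitation, 535 nm emission, after ~16 h lysis at 37C. Before that, Dd2-infected red cells (2.5% hematocrit) grew 72 h with compound, 29 uM top final concentration.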
Potency is the fitted concentration of half-maximal effect; tags give direction and shape of the fitted curve.

| SMILES | activity, negative = inhibition | Potency | outcome |
| --- | --- | --- | --- |
| Cc1cc(C(=O)NC2CCc3nnc(C4CC4)n3CC2)nn1C (stereo unspecified) | inactive: 37.9% |  |  |
| CC1=C[C@@H](CNCc2ccncc2)[C@H](C(C)C)C[C@H]1Cc1nnc(-c2ccc([N+](=O)[O-])cc2)o1 |  | inconclusive: 0.794 µM [inhibitor, full curve, poor fit] |  |
| COc1nnc(-c2ccc(N3CCCCC3)c(NC(=O)c3ccc(Cl)cc3)c2)c2ccccc12 |  | inconclusive: 3.16 µM [inhibitor, full curve] |  |
| COc1ccnc(CN2C(=O)NC(CCc3ccccc3)(C3CCNCC3)C2=O)c1 (stereo unspecified) |  | inconclusive: 5.01 µM [inhibitor, single point] |  |
| O=C(CCC[C@@H]1[C@H]2CCCN3CCC[C@@H](CN1C(=O)c1cc(F)ccc1F)[C@@H]23)Nc1ccccc1 |  | inconclusive: 17.8 µM [inhibitor, single point] |  |
| CNC(=O)c1cc(-c2ccc(C)cc2)cc2c1OCCN2Cc1cccnc1 |  | inconclusive: 2 µM [inhibitor, full curve] |  |
| COc1cccc(S(=O)(=O)NCC(=O)N2CCCCCNC(=O)CC2c2ccccc2)c1 (stereo unspecified) |  |  | inactive |
| CCCNc1cc(N2CCC(CCC(=O)N3CCN(c4cccc(C)c4)CC3)CC2)ncn1 |  | inconclusive: 11.2 µM [inhibitor, partial curve, poor fit] |  |
| Cc1cc(C)cc(N2C(=O)CS(=O)(=O)C23C(=O)N(Cc2ccccc2)c2ccccc23)c1 (stereo unspecified) |  | inconclusive: 17.8 µM [inhibitor, single point] |  |
| Cc1cc(C)n(CCC(=O)N2CC(Oc3ccc(-c4nc(-c5ccccc5)no4)cc3)C2)n1 |  | inconclusive: 0.141 µM [inhibitor, full curve, poor fit] |  |
| CO[C@H]1C(=O)N(C(C)C)[C@H]1C1CCN(C(=O)c2cccc3[nH]ccc23)CC1 | inactive: -4.48% |  |  |
| COc1cccc(CN2CCOC3CCN(CCCc4ccccc4)CC3C2=O)c1 (stereo unspecified) |  | inconclusive: 5.62 µM [inhibitor, single point] |  |
| CCCCN1C(=O)C(CC(=O)NC(C)C)Sc2ncccc21 (stereo unspecified) | inactive: -8.86% |  |  |
| O=C1NCCCCCCN(Cc2ccncc2)[C@@H]2CN(C(=O)NCCc3ccccc3)CC[C@H]12 |  | inconclusive: 17.8 µM [inhibitor, single point] |  |
| Cc1sc2ncn(CC(=O)Nc3ccc(C(F)(F)F)cc3)c(=O)c2c1S(=O)(=O)N1CCN(C)CC1 |  | inconclusive: 12.6 µM [inhibitor, partial curve] |  |
| CCOC(=O)c1[nH]c(C)c(CCC(=O)NCc2ccc(OC(C)C)cc2)c1C |  | inconclusive: 14.1 µM [inhibitor, partial curve, poor fit] |  |
| O=C(c1cccnn1)N1CCC2(CCCN(C3CCOCC3)C2=O)C1 (stereo unspecified) | inactive: 1.04% |  |  |
| CC1(COc2ccccc2)COc2ccc(C(=O)NCc3cccnc3)cc2N1 (stereo unspecified) | inactive: -20.4% [at 44.1 µM] |  |  |
| CCCN1CCC2(CCN([S+](=O)([O-])c3ccc(C)cc3)CC2)Oc2ccccc21 |  | inconclusive: 4.47 µM [inhibitor, partial curve, poor fit] |  |
| CCOc1cc(Br)c(C2C(C(=O)OC)=C(C)NC3=C2C(=O)c2ccccc23)cc1OCC (stereo unspecified) |  | inconclusive: 7.08 µM [inhibitor, single point] |  |
| CCC(C)(C)NC(=O)c1ccc(-c2nnc3ccc(NC(=O)C4CC4)cn23)cc1 |  | inconclusive: 1.12 µM [inhibitor, partial curve, poor fit] |  |
| COc1ccc(-c2nc(C)c(CCNC(=O)c3ccccc3Br)s2)cc1OC |  | inconclusive: 10 µM [inhibitor, single point] |  |

| SMILES | activity, negative = inhibition | Potency | outcome |
| --- | --- | --- | --- |
| COc1ccc(C(=O)N2CCC(Oc3ccccc3)C2)cc1 (stereo unspecified) | inactive: -14.3% |  |  |
| CCOc1ccc(NC(=O)C2CCCN(S(=O)(=O)c3ccc(Br)s3)C2)cc1 (stereo unspecified) |  | inconclusive: 17.8 µM [inhibitor, single point] |  |
| COc1ncccc1CNC[C@H]1O[C@@H]2C[C@@H](CC(=O)NCc3cnn(C)c3)O[C@@H]2[C@@H]1O | inactive: 23% [at 44.1 µM] |  |  |
| Cc1ccc(-c2c(C)n3c4c(=O)n(C)c(=O)n(C)c4nc3n2CCCO)cc1 |  | inconclusive: 17.8 µM [inhibitor, single point] |  |
| CC(C)CCC(=O)N[C@@H]1CN(C)C[C@H]1CN(C)C | inactive: 17.1% |  |  |
| CCc1noc([C@@H]2CC(F)(F)CN2C(=O)c2ccoc2C)n1 |  | inconclusive: 11.2 µM [inhibitor, partial curve] |  |
| O=C(CSc1nc2c([nH]c3ccccc32)c(=O)n1-c1ccccc1)Nc1ccccc1F |  | inconclusive: 17.8 µM [inhibitor, single point] |  |
| CC1CCCN(Cc2c(O)ccc3c(=O)c(-c4ccc(Cl)cc4)c(C(F)(F)F)oc23)C1 (stereo unspecified) |  | active: 0.708 µM |  |
| COCC(=O)N1CCN(S(=O)(=O)c2ccccc2)C[C@@H]1C(=O)N[C@@H](Cc1ccc(OC)cc1)C(=O)OC |  | inconclusive: 17.8 µM [inhibitor, single point] |  |
| COc1ccc(OC)c(CN2CCC3(CCCNC3)C2)c1 (stereo unspecified) |  | inconclusive: 8.91 µM [inhibitor, partial curve] |  |
| CN(C)c1ccc(CN2CC[C@H](c3nc4ccc(C(F)(F)F)cc4[nH]3)C2)cc1 |  | active: 5.62 µM |  |
| O=C(O)c1ccccc1NC(=O)N1c2ccccc2Sc2ccccc21 |  | inconclusive: 17.8 µM [inhibitor, single point] |  |
| CN1CCC(Oc2nccnc2N2CCc3ccccc3C2)C1 (stereo unspecified) |  | active: 8.91 µM |  |
| CCOC(=O)C1CCCN(C(=O)C2CCN(S(=O)(=O)c3c(C)noc3/C=C/c3ccc(C)cc3)CC2)C1 (stereo unspecified) |  | inconclusive: 11.2 µM [inhibitor, single point] |  |
| O=C(COc1ccc(Cl)cc1)N1CCC(c2n[nH]c(=O)n2Cc2ccc(F)cc2)CC1 |  | inconclusive: 1.58 µM [inhibitor, partial curve, poor fit] |  |
| O=C(C1CC1)N1CCN2C(=O)N(C3CCCCC3)C[C@H]2C1 |  | inconclusive: 3.16 µM [inhibitor, full curve, poor fit] |  |
| O=C(c1ccoc1)N1CCCn2cc(-c3ccccc3F)nc21 |  |  | inactive |
| O=C(NCc1nnc2n1C(C(=O)N1CCN(c3ncccn3)CC1)CC2)c1cccnc1 (stereo unspecified) | inactive: 17.1% |  |  |
| O=C(Nc1ccccc1)N1CCC(c2nn(-c3ccc(Cl)cc3)c(=O)[nH]2)CC1 |  |  | inactive |
| CCC1(N2CCN(C(=O)COc3ccc(Cl)cc3C)CC2)CCN(C(=O)NC)C1 (stereo unspecified) | inactive: -35% |  |  |
| Cc1ccccc1S(=O)(=O)N1C[C@@H]2CCCN3CCC[C@@H]([C@H]23)[C@H]1CCCC(=O)NCC1CC1 |  | inconclusive: 14.1 µM [inhibitor, partial curve, poor fit] |  |
| COc1cccc(C(=O)N2CCC3(CC2)NC(=O)N(c2ccccc2)N3)c1 |  |  | inactive |

| SMILES | activity, negative = inhibition | Potency | outcome |
| --- | --- | --- | --- |
| CN1CC2(CCCN(CC3CC3)C2)c2cc(C(=O)NCCOc3ccccc3)ccc21 (stereo unspecified) |  | inconclusive: 1.41 µM [inhibitor, full curve, poor fit] |  |
| O=C(C1CCCC1)N1CC2(CCCN(Cc3c[nH]c4ccccc34)C2)Cc2ccccc21 (stereo unspecified) |  | active: 7.08 µM |  |
| Fc1ccc(OCCc2noc(C3CCCN3)n2)cc1 (stereo unspecified) | inactive: -22.2% |  |  |
| Cc1cc2nc3n(c(=O)c2n1CC(=O)Nc1cccc(C#N)c1)CCCC3 |  | inconclusive: 17.8 µM [inhibitor, single point] |  |
| Cc1ccccc1NC(=O)Cn1c(=O)n(-c2ccc(F)cc2)c(=O)c2c1cc(C)n2C |  |  | inactive |
| CCc1nc2c(c(-c3ccc(Cl)cc3)n1)CN([S+](=O)([O-])c1cccs1)CC2 |  | inconclusive: 8.91 µM [inhibitor, partial curve, poor fit] |  |
| COc1ccc(-c2nc(C3CC(=O)N(c4ccc(C)cc4)C3)no2)c(C)c1 (stereo unspecified) | inactive: 39.3% |  |  |
| COc1cc(F)ccc1CNCc1cccnc1N1CCOCC1 |  | inconclusive: 2 µM [inhibitor, full curve, poor fit] |  |
| COCCc1nncn1C1CCN(S(=O)(=O)c2cccc(Cl)c2)CC1 | inactive: -11.4% |  |  |
| CCC1CN(C(=O)Nc2cc(OC)cc(OC)c2)c2ccccc2S1 (stereo unspecified) |  | inconclusive: 3.98 µM [inhibitor, full curve, poor fit] |  |
| CC(C)CC(=O)N1C[C@@H](Oc2cccnc2)C[C@H]1C(=O)NC1CC1 | inactive: 37.6% |  |  |
| COc1ccc(NC(=O)[C@@H]2C[C@@H](c3cccc(C(F)(F)F)c3)N(CC3CCOCC3)C2)cc1 |  | inconclusive: 3.98 µM [inhibitor, single point] |  |
| O=C(Cc1ccccc1O)NCc1cccnc1Oc1ccc(F)cc1F |  | inconclusive: 0.282 µM [inhibitor, full curve, poor fit] |  |
| CCCN1C(=O)C2(c3ccccc31)c1c(oc3cc(C)c(C)cc3c1=O)C(=O)N2CCCOC (stereo unspecified) |  | inconclusive: 7.94 µM [inhibitor, single point] |  |
| COc1ccc(CCNC(=O)CC(c2cccc(F)c2)c2cn(C)c3ccccc23)cc1OC (stereo unspecified) |  | inconclusive: 3.16 µM [inhibitor, single point] |  |
| Cc1ccccc1OCc1nc(C2CN(C(=O)c3ccc4nc[nH]c4c3)C2)no1 |  | inconclusive: 20 µM [inhibitor, single point] |  |
| CCCn1cc(S(=O)(=O)c2ccc(OC)cc2)c(=O)c2cc(F)c(N3CCCCCC3)cc21 |  | active: 11.2 µM |  |
| CC(C)Oc1ccc(CNC(=O)C2CCCN(S(=O)(=O)c3ccc4c(ccn4C)c3)C2)cc1 (stereo unspecified) |  | inconclusive: 10 µM [inhibitor, single point] |  |
| CCn1cc(S(=O)(=O)c2ccc(C)cc2C)c(=O)c2cc(F)c(N3CCCC3)cc21 |  | active: 11.2 µM |  |
| Cc1ccc(CSc2nnc3[nH]c(=O)cc(C)n23)cc1 |  |  | inactive |
| Cc1cc(F)ccc1NC(=O)c1cc(-c2ccc[nH]2)n[nH]1 |  |  | inactive |
| COc1cc(NC(=O)CSc2ccc(-c3sc(-c4ccccc4)nc3C)nn2)cc(OC)c1 |  | inconclusive: 17.8 µM [inhibitor, single point] |  |
